Measurements taken from PubChem BioAssay AID1745853 (National Center for Advancing Translational Sciences (NCATS), 2022).
Some of the results follow. The main result of the screen is listed elsewhere. These columns were measured beside it and carry no call.

Legend:
Assay in all cases: Primary Screen for Target Class Profiling of Small Molecule Inhibitors of Methyltransferases
[1] = target: Glycine N-methyltransferase (Homo sapiens) (UniProt Q14749); conditions: purified enzyme, MTase-Glo SAH luminescence; measured here: GNMT inhibition; at 40 µM; stronger effect = lower value
Summary of the method: (§1)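 Each enzyme was reacted with SAM and its substrate, with compounds tested once at 40 uM; SAH formed was read by MTase-Glo luminescence.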

[2] = target: Guanidinoacetate N-methyltransferase (Homo sapiens) (UniProt Q14353); conditions: purified enzyme, MTase-Glo SAH luminescence; measured here: GAMT inhibition; at 40 µM; stronger effect = lower value
Summary of the method: as §1

[3] = target: Histamine N-methyltransferase (Homo sapiens) (UniProt P50135); conditions: purified enzyme, MTase-Glo SAH luminescence; measured here: HNMT inhibition; at 40 µM; stronger effect = lower value
Summary of the method: as §1

[4] = target: Nicotinamide N-methyltransferase (Homo sapiens) (UniProt P40261); conditions: purified enzyme, MTase-Glo SAH luminescence; measured here: NNMT inhibition; at 40 µM; stronger effect = lower value
Summary of the method: as §1

[5] = target: Phenylethanolamine N-methyltransferase (Homo sapiens) (UniProt P11086); conditions: purified enzyme, MTase-Glo SAH luminescence; measured here: PNMT inhibition; at 40 µM; stronger effect = lower value
Summary of the method: as §1
% is set by controls: 0 for no effect and ±100 for the full control effect.

## CCOc1ccc(-c2cc3n(n2)CC(C)(C(=O)NC2CCCCC2)N(CCC(C)C)C3=O)cc1 (stereo not given)
[1]
  activity change, negative = inhibition: 3.74%
[2]
  activity change, negative = inhibition: 0%
[3]
  activity change, negative = inhibition: 7.28%
[4]
  activity change, negative = inhibition: 3.57%
[5]
  activity change, negative = inhibition: 2.33%

## CC(C)CCN1C[C@@H]2C(=O)N(CCc3ccccc3)C(=O)[C@@H]2C1
[1]
  activity change, negative = inhibition: -5.15%
[2]
  activity change, negative = inhibition: -4.56%
[3]
  activity change, negative = inhibition: -1.43%
[4]
  activity change, negative = inhibition: -8.97%
[5]
  activity change, negative = inhibition: -1.72%

## Cc1cc(C)cc(NC(=O)CCc2nnc3n(Cc4ccccc4Cl)c(=O)c4ccccc4n23)c1
[1]
  activity change, negative = inhibition: 0.4%
[2]
  activity change, negative = inhibition: 0%
[3]
  activity change, negative = inhibition: 6.31%
[4]
  activity change, negative = inhibition: -5.41%
[5]
  activity change, negative = inhibition: -8.37%

## Cc1nc2scc(CC(=O)N3CCOCC3)n2c(=O)c1-c1cc(C)n(-c2ccc(F)cc2)n1
[1]
  activity change, negative = inhibition: -19.9%
[2]
  activity change, negative = inhibition: -17%
[3]
  activity change, negative = inhibition: -4.45%
[4]
  activity change, negative = inhibition: -15.8%
[5]
  activity change, negative = inhibition: -11.6%

## O=C(NCc1ccc(F)cc1)[C@@H]1C[C@H](c2ccc(F)cc2)N([S+](=O)([O-])C2CC2)C1
[1]
  activity change, negative = inhibition: -6.49%
[2]
  activity change, negative = inhibition: -2.56%
[3]
  activity change, negative = inhibition: -0.03%
[4]
  activity change, negative = inhibition: -12%
[5]
  activity change, negative = inhibition: -6.03%

## O=C(c1ccc(F)c(F)c1Nc1ccc(I)cc1F)N1CC(O)(C2CCCCN2)C1 (stereo not given)
[1]
  activity change, negative = inhibition: 0.431%
[2]
  activity change, negative = inhibition: 12.9%
[3]
  activity change, negative = inhibition: 7.41%
[4]
  activity change, negative = inhibition: -12.6%
[5]
  activity change, negative = inhibition: 7.78%

## Fc1ccc(CN(C2=NCCN2)c2c(Cl)cccc2Cl)cc1
[1]
  activity change, negative = inhibition: -8.25%
[2]
  activity change, negative = inhibition: 2.81%
[3]
  activity change, negative = inhibition: -42.9%
[4]
  activity change, negative = inhibition: -24.4%
[5]
  activity change, negative = inhibition: 7.08%

## CC(C)c1noc([C@@H]2C[C@H](NS(=O)(=O)c3ccccc3)CN2C)n1
[1]
  activity change, negative = inhibition: -3.71%
[2]
  activity change, negative = inhibition: -7.44%
[3]
  activity change, negative = inhibition: -3.27%
[4]
  activity change, negative = inhibition: -13.9%
[5]
  activity change, negative = inhibition: -9.95%

## CC(CN1C(=O)c2nc3ccccc3n2CC1(C)C(=O)NC1CCCC(C)C1C)c1ccccc1 (stereo not given)
[1]
  activity change, negative = inhibition: 1.84%
[2]
  activity change, negative = inhibition: 0.332%
[3]
  activity change, negative = inhibition: -6.02%
[4]
  activity change, negative = inhibition: -1.37%
[5]
  activity change, negative = inhibition: -1.15%

## CC(C)OCCCn1c(=O)c2cc(Cl)ccc2n2c(SCc3ccccc3F)nnc12
[1]
  activity change, negative = inhibition: -7.95%
[2]
  activity change, negative = inhibition: 3.95%
[3]
  activity change, negative = inhibition: -2.06%
[4]
  activity change, negative = inhibition: -15.8%
[5]
  activity change, negative = inhibition: 0.545%

## O=C(C1CC1)N1CCc2cc(Br)c(S(=O)(=O)NCCN3CCN(c4ccccc4F)CC3)cc21
[1]
  activity change, negative = inhibition: -9.54%
[2]
  activity change, negative = inhibition: 5.09%
[3]
  activity change, negative = inhibition: -2.95%
[4]
  activity change, negative = inhibition: -8.71%
[5]
  activity change, negative = inhibition: -3.44%

## COC(=O)c1ncn2c1C(=O)N(CCc1ccc(Cl)cc1)C(C)(C(=O)NC1CCCCCC1)C2 (stereo not given)
[1]
  activity change, negative = inhibition: -1.14%
[2]
  activity change, negative = inhibition: 0%
[3]
  activity change, negative = inhibition: 5.42%
[4]
  activity change, negative = inhibition: 6.41%
[5]
  activity change, negative = inhibition: 2.38%

## O=C(Cn1c(=O)oc2cc(S(=O)(=O)NCc3ccccc3)ccc21)N1CCOCC1
[1]
  activity change, negative = inhibition: -4.6%
[2]
  activity change, negative = inhibition: 5.02%
[3]
  activity change, negative = inhibition: -0.28%
[4]
  activity change, negative = inhibition: 10.8%
[5]
  activity change, negative = inhibition: -4.57%

## CCc1c2c(nc3ccc(O)cc13)-c1cc3c(c(=O)n1C2)COC(=O)[C@]3(O)CC
[1]
  activity change, negative = inhibition: -4.12%
[2]
  activity change, negative = inhibition: -7.68%
[3]
  activity change, negative = inhibition: -7.93%
[4]
  activity change, negative = inhibition: -16.8%
[5]
  activity change, negative = inhibition: -12.5%

## COc1cccc(CCC(=O)N2CCC(n3cc(-c4nc(-c5ccccc5)no4)nn3)C2)c1 (stereo not given)
[1]
  activity change, negative = inhibition: -4.72%
[2]
  activity change, negative = inhibition: -1.54%
[3]
  activity change, negative = inhibition: 0.06%
[4]
  activity change, negative = inhibition: -7.8%
[5]
  activity change, negative = inhibition: -0.661%

## CCc1cc2c(cc1N1CCC(N3CCOCC3)CC1)C(C)(C)c1[nH]c3cc(C#N)ccc3c1C2=O
[1]
  activity change, negative = inhibition: -5.82%
[2]
  activity change, negative = inhibition: 0.027%
[3]
  activity change, negative = inhibition: 1.6%
[4]
  activity change, negative = inhibition: -11.2%
[5]
  activity change, negative = inhibition: 2.4%

## CC(=O)N1CCN(C(=O)c2cc(-c3ccc(F)cc3)c3nncn3n2)CC1
[1]
  activity change, negative = inhibition: -2.44%
[2]
  activity change, negative = inhibition: -2.91%
[3]
  activity change, negative = inhibition: 0.461%
[4]
  activity change, negative = inhibition: -12.3%
[5]
  activity change, negative = inhibition: 4.69%

## O=C1NC2(CN([S+](=O)([O-])c3ccsc3)C2)Oc2ccccc21
[1]
  activity change, negative = inhibition: -10.3%
[2]
  activity change, negative = inhibition: -14.4%
[3]
  activity change, negative = inhibition: -8.12%
[4]
  activity change, negative = inhibition: -29.9%
[5]
  activity change, negative = inhibition: -5.27%

## COc1ccccc1N1CCN(C(=O)CCc2nnc3n(Cc4ccc(C)cc4)c(=O)c4ccccc4n23)CC1
[1]
  activity change, negative = inhibition: -7.89%
[2]
  activity change, negative = inhibition: 1.06%
[3]
  activity change, negative = inhibition: 6.86%
[4]
  activity change, negative = inhibition: 8.04%
[5]
  activity change, negative = inhibition: 2.83%
